Experimental data as given in publication PMC9911399, “Two distinct binding modes provide the RNA-binding protein RbFox with extraordinary sequence specificity”.
Substitutions are numbered along the chain they refer to; changes in the protein carry UniProt numbers. This is one part of the list.

T1: RBFOX1 RRM RbFoxmut (Fox-RRM*) (Homo sapiens, UniProt Q9NWB1 109-208, R118D;E147R;N151S;E152T)
T1 sequence: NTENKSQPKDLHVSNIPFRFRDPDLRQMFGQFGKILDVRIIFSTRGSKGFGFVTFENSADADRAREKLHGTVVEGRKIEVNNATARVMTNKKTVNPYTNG

B1: ACAUGUG (DNA:RNA)
RNA: GGGAGACCGGAAUUCAGAUUGUCCACAUGUGUUAAAUCCCGUCGUAGCCACCA
DNA 1: CAATCTGAATTCCGGTCTCCC
DNA 2: TGGTGGCTACGACGGGATT
B2: ACGUCCA (DNA:RNA)
RNA: B1 RNA with A27G, G29C, U30C, G31A
DNA 1: CAATCTGAATTCCGGTCTCCC
DNA 2: TGGTGGCTACGACGGGATT
B3: GAGAUUC (DNA:RNA)
RNA: B1 RNA with A25G, C26A, A27G, U28A, G29U, G31C
DNA 1: CAATCTGAATTCCGGTCTCCC
DNA 2: TGGTGGCTACGACGGGATT
B4: UACGAAG (DNA:RNA)
RNA: B1 RNA with A25U, C26A, A27C, U28G, G29A, U30A
DNA 1: CAATCTGAATTCCGGTCTCCC
DNA 2: TGGTGGCTACGACGGGATT
B5: GAGGUUC (DNA:RNA)
RNA: B1 RNA with A25G, C26A, A27G, U28G, G29U, G31C
DNA 1: CAATCTGAATTCCGGTCTCCC
DNA 2: TGGTGGCTACGACGGGATT
B6: UUUGGAC (DNA:RNA)
RNA: B1 RNA with A25U, C26U, A27U, U28G, U30A, G31C
DNA 1: CAATCTGAATTCCGGTCTCCC
DNA 2: TGGTGGCTACGACGGGATT
B7: AAGCAUG (DNA:RNA)
RNA: B1 RNA with C26A, A27G, U28C, G29A
DNA 1: CAATCTGAATTCCGGTCTCCC
DNA 2: TGGTGGCTACGACGGGATT
B8: ACGGUCC (DNA:RNA)
RNA: B1 RNA with A27G, U28G, G29U, U30C, G31C
DNA 1: CAATCTGAATTCCGGTCTCCC
DNA 2: TGGTGGCTACGACGGGATT
B9: CGUGGCC (DNA:RNA)
RNA: B1 RNA with A25C, C26G, A27U, U28G, U30C, G31C
DNA 1: CAATCTGAATTCCGGTCTCCC
DNA 2: TGGTGGCTACGACGGGATT
B10: GUCCGUC (DNA:RNA)
RNA: B1 RNA with A25G, C26U, A27C, U28C, G31C
DNA 1: CAATCTGAATTCCGGTCTCCC
DNA 2: TGGTGGCTACGACGGGATT
B11: GCUGACU (DNA:RNA)
RNA: B1 RNA with A25G, A27U, U28G, G29A, U30C, G31U
DNA 1: CAATCTGAATTCCGGTCTCCC
DNA 2: TGGTGGCTACGACGGGATT
B12: AAUUUAU (DNA:RNA)
RNA: B1 RNA with C26A, A27U, G29U, U30A, G31U
DNA 1: CAATCTGAATTCCGGTCTCCC
DNA 2: TGGTGGCTACGACGGGATT
B13: UCAGGUU (DNA:RNA)
RNA: B1 RNA with A25U, U28G, G31U
DNA 1: CAATCTGAATTCCGGTCTCCC
DNA 2: TGGTGGCTACGACGGGATT
B14: AUGACGU (DNA:RNA)
RNA: B1 RNA with C26U, A27G, U28A, G29C, U30G, G31U
DNA 1: CAATCTGAATTCCGGTCTCCC
DNA 2: TGGTGGCTACGACGGGATT
B15: CCAUCAA (DNA:RNA)
RNA: B1 RNA with A25C, G29C, U30A, G31A
DNA 1: CAATCTGAATTCCGGTCTCCC
DNA 2: TGGTGGCTACGACGGGATT
B16: GCUGUUC (DNA:RNA)
RNA: B1 RNA with A25G, A27U, U28G, G29U, G31C
DNA 1: CAATCTGAATTCCGGTCTCCC
DNA 2: TGGTGGCTACGACGGGATT
B17: UUUUCUU (DNA:RNA)
RNA: B1 RNA with A25U, C26U, A27U, G29C, G31U
DNA 1: CAATCTGAATTCCGGTCTCCC
DNA 2: TGGTGGCTACGACGGGATT
B18: UUAGUAU (DNA:RNA)
RNA: B1 RNA with A25U, C26U, U28G, G29U, U30A, G31U
DNA 1: CAATCTGAATTCCGGTCTCCC
DNA 2: TGGTGGCTACGACGGGATT
B19: UCCCGGG (DNA:RNA)
RNA: B1 RNA with A25U, A27C, U28C, U30G
DNA 1: CAATCTGAATTCCGGTCTCCC
DNA 2: TGGTGGCTACGACGGGATT
B20: GCUCCCC (DNA:RNA)
RNA: B1 RNA with A25G, A27U, U28C, G29C, U30C, G31C
DNA 1: CAATCTGAATTCCGGTCTCCC
DNA 2: TGGTGGCTACGACGGGATT
B21: CCCCACC (DNA:RNA)
RNA: B1 RNA with A25C, A27C, U28C, G29A, U30C, G31C
DNA 1: CAATCTGAATTCCGGTCTCCC
DNA 2: TGGTGGCTACGACGGGATT
B22: AGACAUA (DNA:RNA)
RNA: B1 RNA with C26G, U28C, G29A, G31A
DNA 1: CAATCTGAATTCCGGTCTCCC
DNA 2: TGGTGGCTACGACGGGATT
B23: CUACUUA (DNA:RNA)
RNA: B1 RNA with A25C, C26U, U28C, G29U, G31A
DNA 1: CAATCTGAATTCCGGTCTCCC
DNA 2: TGGTGGCTACGACGGGATT
B24: GAAAGUU (DNA:RNA)
RNA: B1 RNA with A25G, C26A, U28A, G31U
DNA 1: CAATCTGAATTCCGGTCTCCC
DNA 2: TGGTGGCTACGACGGGATT
B25: UCUGCGA (DNA:RNA)
RNA: B1 RNA with A25U, A27U, U28G, G29C, U30G, G31A
DNA 1: CAATCTGAATTCCGGTCTCCC
DNA 2: TGGTGGCTACGACGGGATT
B26: AUGAACU (DNA:RNA)
RNA: B1 RNA with C26U, A27G, U28A, G29A, U30C, G31U
DNA 1: CAATCTGAATTCCGGTCTCCC
DNA 2: TGGTGGCTACGACGGGATT
B27: GCACUGU (DNA:RNA)
RNA: B1 RNA with A25G, U28C, G29U, U30G, G31U
DNA 1: CAATCTGAATTCCGGTCTCCC
DNA 2: TGGTGGCTACGACGGGATT
B28: UAUAUUA (DNA:RNA)
RNA: B1 RNA with A25U, C26A, A27U, U28A, G29U, G31A
DNA 1: CAATCTGAATTCCGGTCTCCC
DNA 2: TGGTGGCTACGACGGGATT
B29: GAGUAGG (DNA:RNA)
RNA: B1 RNA with A25G, C26A, A27G, G29A, U30G
DNA 1: CAATCTGAATTCCGGTCTCCC
DNA 2: TGGTGGCTACGACGGGATT
B30: UAACCGG (DNA:RNA)
RNA: B1 RNA with A25U, C26A, U28C, G29C, U30G
DNA 1: CAATCTGAATTCCGGTCTCCC
DNA 2: TGGTGGCTACGACGGGATT
B31: UAGUAGU (DNA:RNA)
RNA: B1 RNA with A25U, C26A, A27G, G29A, U30G, G31U
DNA 1: CAATCTGAATTCCGGTCTCCC
DNA 2: TGGTGGCTACGACGGGATT

Molecular target: T1, RBFOX1 RRM RbFoxmut (Fox-RRM*)
Experiment: EMSA; HiTS-Eq, 1 nM pool, 10 min; buffer printed only for the single-RNA assays: 10 mM Tris pH 7.5, 150 mM NaCl, 3.4 mM EDTA, 0.001% NP-40, 30 C
Conditions: tags: His6 N-terminal (pET28a); label: 5' 32P
Summary of the method: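 A pool of RNA with 7 randomized nucleotides, 5′-radiolabelled and with DNA-annealed flanks, was equilibrated at 1 nM for 10 min in 50 µL with purified RbFox RRM, wild type or mutant, across increasing protein concentrations. Free RNA was separated by 8% native PAGE, excised, reverse-transcribed, barcoded by PCR and sequenced. Relative association constants were obtained from read-count changes of each RNA species versus the control reaction and normalised to the cognate motif.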

For B1, which binding signal is on record?
Its binding signal is 0.155 KA relative to UGCAUGU.

Which binding signal does the source give for B2 here?
Its binding signal is 0.1 KA relative to UGCAUGU.

Which binding signal does the source give for B3 here?
The binding signal was 0.101 KA relative to UGCAUGU.

With B4 as the binder, how does the binding signal read?
Its binding signal is 0.0529 KA relative to UGCAUGU.

B5 was tested. Which binding signal did it give?
Its binding signal is 0.143 KA relative to UGCAUGU.

Which binding signal does the source give for B6 here?
Its binding signal is 0.052 KA relative to UGCAUGU.

For B7, which binding signal is on record?
Its binding signal is 0.715 KA relative to UGCAUGU.

B8 was tested. Which binding signal did it give?
Its binding signal is 0.0923 KA relative to UGCAUGU.

B9 was tested. Which binding signal did it give?
The binding signal was 0.275 KA relative to UGCAUGU.

How did the binding signal turn out when B10 was run?
The binding signal was 0.0864 KA relative to UGCAUGU.

For B11, which binding signal is on record?
The binding signal was 0.0786 KA relative to UGCAUGU.

Which binding signal does the source give for B12 here?
Its binding signal is 0.117 KA relative to UGCAUGU.

For B13, which binding signal is on record?
The binding signal was 0.0956 KA relative to UGCAUGU.

For B14, which binding signal is on record?
The binding signal was 0.0869 KA relative to UGCAUGU.

For B15, which binding signal is on record?
Its binding signal is 0.104 KA relative to UGCAUGU.

For B16, which binding signal is on record?
The binding signal was 0.0841 KA relative to UGCAUGU.

With B17 as the binder, how does the binding signal read?
The binding signal was 0.0775 KA relative to UGCAUGU.

With B18 as the binder, how does the binding signal read?
Its binding signal is 0.137 KA relative to UGCAUGU.

With B19 as the binder, how does the binding signal read?
Its binding signal is 0.0819 KA relative to UGCAUGU.

Which binding signal does the source give for B20 here?
The binding signal was 0.0605 KA relative to UGCAUGU.

B21 was tested. Which binding signal did it give?
The binding signal was 0.0828 KA relative to UGCAUGU.

For B22, which binding signal is on record?
Its binding signal is 0.0818 KA relative to UGCAUGU.

With B23 as the binder, how does the binding signal read?
Its binding signal is 0.162 KA relative to UGCAUGU.

With B24 as the binder, how does the binding signal read?
Its binding signal is 0.0785 KA relative to UGCAUGU.

B25 was tested. Which binding signal did it give?
Its binding signal is 0.11 KA relative to UGCAUGU.

With B26 as the binder, how does the binding signal read?
Its binding signal is 0.114 KA relative to UGCAUGU.

Which binding signal does the source give for B27 here?
The binding signal was 0.102 KA relative to UGCAUGU.

Which binding signal does the source give for B28 here?
Its binding signal is 0.133 KA relative to UGCAUGU.

For B29, which binding signal is on record?
Its binding signal is 0.0977 KA relative to UGCAUGU.

B30 was tested. Which binding signal did it give?
Its binding signal is 0.0583 KA relative to UGCAUGU.

Which binding signal does the source give for B31 here?
The binding signal was 0.121 KA relative to UGCAUGU.
